# Variants at the floor of the assay are shown more often than the library holds them.
# B1: TPR 5TU (parent)
# chain: GGAUCUUCUCGAUCUAACAAAAAAGACAAAUCUGCCACAAAGCUUGAGAGCAUCUUCGGAUGCAGAGGCGGCAGCCUUCGGUGGCGCGAUAGCGCCAACGUUCUCAACUAUGACACGCAAAACGCGUGCUCCGUUGAAUGGAGUUUAUCAUG
# Variants of: B1
# Test: polymerase ribozyme fitness, log enrichment relative to wild type (log ratio); higher = more active; in vitro selection for triplet polymerase activity
# How it was run: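 Libraries of mutants in each subunit of a heterodimeric triplet polymerase ribozyme were generated by PCR and transcribed. In triplicate, each went through one in vitro selection round: annealing with biotinylated primer, partner subunit and triplets; frozen incubation at −7 °C; gel excision of extended constructs; streptavidin-bead capture; RT-PCR. Fitness, taken from Illumina sequencing of input and output libraries, is the logarithm of a genotype's enrichment over wild-type enrichment, averaged across replicates with inverse-variance weights. The logarithm is base 2, and genotypes needed ≥10 input reads and ≥1 read per output to be kept.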
row,Variant,polymerase ribozyme fitness (log ratio)
1,GGAUCUUCUCCAUCUACCAAAAAAGACAAAUCUGCCACAAAGCUUGAGACCAUCUUCGGUUGCAGAGGCGGCAGCGUUCGGUCGCGCGAUAGCGCCAACGUUCUCAACUAUGACACGCAAAACGAGUGCUCCGUUGAAUGGAGUUUAUCAUG [G11C A17C G50C A60U C76G G83C C125A],≤ -4.2
2,GGAUCUUCUCCAUCUAGCAAAAAAUACAAAGCUGCCACAAAGCUUGAGAGCAUCUUCGGAUGCAGAGGCGGCAGCCUUCGGUGGCGUGAUAGCGCCAACGUUCUCAACUAUGACACGCAAAACGCGUGCUCCGUUGAAUGGAGUUUAUCAUG [G11C A17G G25U U31G C87U],≤ -4.2
3,GGAUCUUCUCCAUCUAACGAAAAAGACAAAUCUGCCACAAAGCUUGAGAGCGUCUUCGGAUGCAGAGCCGGCAGCCUUCGGUGGCGCGAUAGCGCCGACGUUCUCAACUAUGACACGCAAAACGCGUGCUCAGCUGAAUGGAGAUUAUCAUG [G11C A19G A52G G68C A97G C132A U134C U144A],≤ -4.2
4,GGAUCUUCUCCAUCUAACUAAAAAGACAAAUCUGCCACAAAGCUUGAGAGCAUAUUCGCAUGCAGAGCCGGCAGCCUUCGGUGGGGCGAUAGCGCCAAGGUUCUCAACUAUGACACGCAAAACGCGUGCUCCGUUGAAUGGAGUUUAUCAUG [G11C A19U C54A G59C G68C C85G C99G],≤ -4.2
5,GGAUCUUCUCCAUCUAACAGAAAAGACAAAUCUUCCACAAAGCUUGAGAGCAUCUUCGGAUGCAGAGGCGGCAGCCUUCGGUGGCGCGAUAGCGCCAACGUUCUCAACUAUGACACGCAAAACGCGUGCUCCGUUGUAUGGAGUUUAUCAUG [G11C A20G G34U A137U],≤ -4.2
6,GGAUCUUCUCCAUCUAACAUAAAAGACAAAUCUGCCACAUAGCUUGAGAGCAUCUUCGGAUGCAGAGGCGGCAGCCUUCGGGAGCGCGAUAGAGCCAACGUUCUCAAAUAUGACACGCAAAACGCGUGCUCCGUUGAAUGGAGUUUAUCAUG [G11C A20U A40U U82G G83A C93A C108A],≤ -4.2
7,GGAUCUUCUCCAUCUAACAAAUAAGACAAGUCUGCCCCAAAGCUUGAGAGCAUCUUCGGAUGCAGAGGCGGCAGCCUUCGGUGGCGCGAUGGAGCCACCGUUCUCAACUAUGACACGGAAAACGCGUGCUCCGUUGAAUGGAGUUUAUCAUG [G11C A22U A30G A37C A91G C93A A98C C118G],≤ -4.2
8,GGAUCUUCUCCAUCUAACAAAACAGACAAAUCUGCCACAAAGCUUGAGAGCAUCUUCGGAUGCAGAGGCGGCAGUCUUCGGUGGCUCGAUAGCGCCAACAGUCUAAACGAUGACACGCAAAACGCGUGCUCCGUUGAAUGGAGUUUAUCAUG [G11C A23C C75U G86U G100A U101G C105A U109G],≤ -4.2
9,GGAUCUUCUCCAUCUAACAAAAUAGACAAAUCUGCCACAAAGCUUGAUAGCAUCUUUGGAUGCAGAGGCGGCAGCCUUCGGUGGCGCGAUAGGGCCAACGUUCUCAACUAUGACACGCAAAACGCGUGCUCCGUUGAAUGGAGUUUAUCAUG [G11C A23U G48U C57U C93G],≤ -4.2
10,GGAUCUUCUCCAUCUAACAAAAUAGACAAAUCUGCCACAAAGCUUGAGACCAUGUUUGGAUGCAGAGGCGGCAGCCUUCGGUGGCGCGGUAGCGCCAACGUUCUCAACUAUGACAAGCAAAACCCGUGCUCCGUUGAAAGGAGUUUAUCAUG [G11C A23U G50C C54G C57U A89G C116A G124C U139A],≤ -4.2
11,GGAUCUUCUCCAUCUAACAAAAAUGACAAAUCUGCCACAAAGCUUGAGAGCGUCUUCGCAUGCAGAGGCGGCAACCGUCGGUGGCGGGAUAGCGCCAACGUUCUCAACUAUGACACGCAAAACGCGUGCUCCGUUGAAUGGAGUUUAUCAUG [G11C A24U A52G G59C G74A U77G C87G],≤ -4.2
12,GGAUCUUCUCCAUCUAACAAAAAAGCCAAAUCUGCCACAAAGCUGGAGAGCAUUUUCGGAUGCAGAGGCGGCAGCCUUCGGUGGCGCGAUAGCGCCAACGUUCUCAACUAUGACACGCAAAACGCGUGCUCCGUUGAAUGGAGUUUAUCAUG [G11C A26C U45G C54U],≤ -4.2
13,GGAUCUUCUCCAUCUAACAAAAAAGGCAAAUCUGCCACAAAGCUUGAGAGCAUCUUCGGAUGCAGAGGCGGCAGGCUUCGGUCGCGCGAUAGCGCCAACGUUCUCAACGAUGCCACGCAAAACGCGCGCUCCGUUGAAUGGAGUUUAUCAUG [G11C A26G C75G G83C U109G A113C U127C],≤ -4.2
14,GGAUCUUCUCCAUCUAACAAAAAAGUCAAAUCUGCCACAAAGCUUGAGAGCAGCUUCGGAUGCAGAGGCGGCAGCCUUCGGUGGCGGGAUAGCGCCAAAGUUCUCAACUAUGACACGCAAAACGCGUGCUCCGUUGAUUGGAGUUUAACAUG [G11C A26U U53G C87G C99A A138U U148A],≤ -4.2
15,GGAUCUUCUCCAUCUAACAAAAAAGACCAAUCUGCCACAUAGCUUGAGAGCAUCUUCGGAUGCAGAGGCGGCAGCCUUCGGUGGCGCGAUAGCGCCAACGUUCUCAACUAUGACACGCAAAACGCGUGCUCCGUUGAUUGGAGUUUAUCAUA [G11C A28C A40U A138U G152A],≤ -4.2
16,GGAUCUUCUCCAUCUAACAAAAAAGACAUAUCUGCCACAAAGCUUGAGAGCAUCUUCUCAUGCAGAGGCGGCAGCCAUCGGUGGCGCGAUAGCGCCAACGUUCUCAACUAUGACACGCAAAACGCGUGCUCCGUUGAAUGGAGUUUAUCAGG [G11C A29U G58U G59C U77A U151G],≤ -4.2
17,GGAUCUUCUCCAUCUAACAAAAAAGACAAAUCUGCCACGAAGCUUGAGAGCAUCUUCGGAUGCACAGGCGGCAGCCUUCGGUGGGGCGAUAGCGCCAACGUUCUCAACUAUGACACGCAAAACGCGUGCUCCGUUGAAUGGAGUUUAUCAUG [G11C A39G G65C C85G],≤ -4.2
18,GGAUCUUCUCCAUCUAACAAAAAAGACAAAUCUGCCACUAAGCUUGAGAGCAUCUUCGGAUGCAGAGGCGGCUGCCUUCGGUGGCGCGAUAGCGCUAACGUUCUCAACUAUGACACGCAAAACGCGUGCUCCGUUGAAUGGAGUUUAUCAUG [G11C A39U A73U C96U],≤ -4.2
19,GGAUCUUCUCCAUCUAACAAAAAAGACAAAUCUGCCACACAGCUUGAGAGCAUCUUCGGAUGCAGAGGCGGCAGCCUUCGGUGACGCGAUAGCGCCUACGUUCUCAACUAUGACACGCAAAACGCGUGCUCCGUUGAAUGGAGUUUAUCAUG [G11C A40C G84A A97U],-3.7

# Reference: the RNAGym collection of RNA variant scans (doi:10.1073/pnas.2313332121)
